Test results as given in PubChem BioAssay AID1347073 (National Center for Advancing Translational Sciences (NCATS), 2019).
Screen size: about 45,000 compounds; about 200 (0.44%) were called active. Not shown: some 7% with an inconclusive outcome. The call rests on the fitted dose curve; in most records, active means well fitted activation curve with a large enough effect; inconclusive means small, poorly fitted or top-dose-only effect; inactive means no such curve, though single readings can be large or run the other way. The list shows a part of the results.

assay: qHTS of TDP-43 Inhibitors: NCGC Sytravon Library Screen; settings: yeast TDP-43 toxicity rescue, BacTiter-Glo growth, 24 h; series mostly up to 46.1 µM; growth rescue (activation): at the top concentration; further: 0% is about no effect; nearly all actives have a fitted effect of over 55% in size
Method in brief: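 TDP-43-expressing yeast, pregrown in raffinose, seeded at OD600 0.02 in galactose medium with compound for 24 hr at 30 deg C. Growth read by BacTiter-Glo luminescence, so rescue of toxicity appears as activation.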

Compound | growth rescue (activation)
O=S(=O)(NC1CCCCC1)c1ccc(Br)s1 | inactive: 22.7%
Cc1nnc(SCC(=O)N/N=C/c2ccc(-c3ccc(C)c(Cl)c3)o2)s1 | inactive: 18.6%
O=C(NCCc1ccccc1)Nc1nnc([C@@H]2C[C@H](O)[C@@H](CO)O2)s1 | inactive: 2.78%
CCOC(=O)CNC(=O)N1CCc2cc(S(=O)(=O)N3CCC(C)CC3)ccc21 | inactive: 28%
Cc1ccccc1N1CC(C(=O)Nc2ccc3c(c2)OCO3)CC1=O (configuration not stated) | inactive: 2.04%
CC(=O)NCCc1nc2cc(NC(=O)COc3cccc(C)c3)ccc2n1C | inactive: -10.3%
N#CC(C#N)=C1C=CC=CN1/C(=C\c1ccco1)C(=O)c1ccccc1 | inactive: 8.17%
COc1cc(C2C(C#N)=C(N)N(N(C)C)C3=C2C(=O)CCC3)ccc1O (configuration not stated) | inactive: -16.2%
Cc1ccccc1-n1c(/C=C/c2c(C)n(C)c3ccccc23)nc2ccccc2c1=O | inactive: 10.6%
Cc1nc(C)n(CC(=O)N2CCCC(C(=O)c3ccc(Cl)cc3C)C2)n1 (configuration not stated) | inactive: -11.7%
O=C(Cn1cncn1)N/N=C/c1cccc2ccccc12 | inactive: 5.88%
Cc1ccc(-c2nnn3c2nc(Cl)c2ccccc23)cc1 | inactive: 6.37%
O=C(COc1cccc(Br)c1)N/N=C1\CCCc2ccccc21 | inactive: 25.6%
Cc1c(C(=O)N2CCN(Cc3ccc4c(c3)OCO4)CC2)cccc1[N+](=O)[O-] | inactive: 14.3%
COc1ccc(S(=O)(=O)N2CCN(C)CC2)cc1NC(=O)c1ccccc1C | inactive: 2.96%
O=C(NCc1ccccc1Cl)C1CCN(S(=O)(=O)N2CCOCC2)CC1 | inactive: 3.19%
O=C(OCC(=O)N1CCC(Cc2ccccc2)CC1)c1ccc[nH]c1=O | inactive: 22%
O=C(O)Cn1cnc2scc(-c3ccccc3)c2c1=O | inactive: 0.214%
COc1ccc(CCNS(=O)(=O)c2ccc3[nH]c(=O)[nH]c3c2)cc1 | inactive: 0.53%
C=CCNC(=O)c1ccc2nc(Cc3ccc(OC)cc3)oc2c1 | inactive: 16.4%
CC(=O)N/C(=C\c1ccccc1)C(=O)OCC(=O)c1c(N)n(C)c(=O)n(C)c1=O | inactive: -3.6%
COc1cccc2cc(C(=O)NCc3ccc(Cl)cc3)c(=O)oc12 | inactive: -10.3%
CN(NS(=O)(=O)c1ccc(F)cc1)c1ncc(C(F)(F)F)cc1Cl | inactive: -0.623%

Compound | growth rescue (activation)
CCN1CCN(C(c2ccccc2)c2sc3nc(-c4ccco4)nn3c2O)CC1 (configuration not stated) | inactive: -4.94%
O=C(CCc1nnc(-c2ccc3c(c2)OCO3)o1)NC(c1cccnc1)C(F)(F)F (configuration not stated) | inactive: 8.7%
OC[C@H]1O[C@@H](c2nc(-c3ccccc3Br)no2)[C@H](O)[C@@H](O)[C@H]1O | inactive: -5.18%
COc1ccccc1C(=O)n1nc(-c2ccco2)nc1NCc1ccc(Cl)cc1 | inactive: 9.87%
COc1ccc(Cl)cc1-c1nc(SCC(N)=O)n[nH]1 | inactive: 3.4%
COc1cc(CN2CCN(C(=O)CC(C)C)CC2)c([N+](=O)[O-])cc1OC | inactive: -2.47%
COc1ccc(-n2cc3ccc([N+](=O)[O-])cc3n2)cc1 | inactive: -1.4%
CN(c1ccccc1)S(=O)(=O)c1cccc(NC(=O)CN2CCCc3ccccc32)c1 | inactive: 4.61%
CNC(=S)Nc1sc2c(c1C(=O)OC)CCC2 | inactive: 26.1%
CC(=O)c1cccc(NC(=O)N2CCCC2C(=O)Nc2ccc3c(c2)OCCO3)c1 (configuration not stated) | inactive: -8.17%
Cc1coc2cc3oc(=O)c(CC(=O)N[C@@H](CC(C)C)C(=O)O)c(C)c3cc12 | inactive: 3.09%
Nc1nnc(-c2cccc([N+](=O)[O-])c2)o1 | inactive: 0.855%
CC(=O)C1=C(C)NC(SCC(=O)c2ccccc2)=C(C#N)C1CC(C)C (configuration not stated) | inactive: 15.6%
COc1ccc(Nc2ccc(N3C(=O)CCCC3=O)cc2[N+](=O)[O-])cc1OC | inactive: 1.99%
c1ccc2[nH]c(C3CC3)nc2c1 | inactive: 8.99%
O=C(COC(=O)CNS(=O)(=O)c1c(Cl)cccc1Cl)Nc1cccnc1Cl | inactive: 11.1%
CCNC(=O)C1(C)CCN(C(=O)c2cc(C)oc2C)C1 (configuration not stated) | inactive: -2.71%
Cc1cc(Cl)nc(NC(=O)Nc2cccc(Cl)c2)n1 | inactive: -0.224%
COc1ccc(CN(C)CC(=O)Nc2ccccc2C(=O)NC2CC2)cc1F | inactive: 18.3%
N#C/C(=C(/O)c1ccccc1F)c1nc2cc(C(F)(F)F)ccc2s1 | inactive: -10.3%
O=C1Cc2ccccc2C(=O)N1c1cccc(Cl)c1 | inactive: 2.79%
COc1ccc(C2C(O)C(c3c[nH]c4ccccc34)=NN2C(=O)CCl)cc1 (configuration not stated) | inactive: 11.7%
C/C(=N/NC(=O)CC(=O)N/N=C(\C)c1ccc([N+](=O)[O-])cc1)c1ccc([N+](=O)[O-])cc1 | inactive: -17.8%

Compound | growth rescue (activation)
COc1ccc(NC(=O)c2ccc(C#N)cc2)cc1NS(=O)(=O)c1ccc(F)cc1 | inactive: -7.84%
COc1cc(/C=C/C(=O)OCC(=O)Nc2cccc(F)c2)ccc1O | inactive: 18.2%
Nc1cc(=O)[nH]c(SCC(=O)Nc2cccc(S(=O)(=O)N3CCCCCC3)c2)n1 | inactive: 0.949%
CC(=O)Nc1cccc(Oc2ccc3c(c2)C(=O)N(CCC(=O)O)C3=O)c1 | inactive: 9.56%
COc1cccc2cc(C(C)N(CCCN3CCOCC3)C(=S)Nc3cc(C)ccc3C)oc12 (configuration not stated) | inactive: -14.1%
COc1ccccc1NC(=O)CCCN1C(=O)C2CC=CCC2C1=O (configuration not stated) | inactive: 12.7%
Cc1cc(=O)n2c(n1)NC(Nc1cccc(C)c1C)=NC2c1ccc(F)cc1 (configuration not stated) | inactive: 0.554%
CC(=O)N1CCN(C(=O)c2cc(=O)c3ccccc3o2)CC1 | inactive: -7.12%
CCOC(=O)C1=C(C)N=c2s/c(=C\c3cccn3C)c(=O)n2C1c1cccc(OC)c1OC (configuration not stated) | inactive: -14.6%
O=C(COC(=O)c1cc(=O)[nH]c2ccccc12)NCc1cccs1 | inactive: 9.08%
COc1cc(/C=C/C(=O)N2CCOCC2)ccc1OCc1ccccc1 | inactive: 38.1%
Cc1cccc(NC(=O)CN(C)C(=O)c2ccc3ccccc3n2)c1C | inactive: 38.1%
O=C(Nc1ccccc1O)c1c(O)c2c([nH]c1=O)CCCC2 | inactive: -4.35%
CCC1(c2ccccc2)NC(=O)N(CC(=O)Nc2cccc(S(=O)(=O)N3CCCCC3)c2)C1=O (configuration not stated) | inactive: 25.6%
Clc1ccc(-c2cc(C3CCNCC3)[nH]n2)c(Cl)c1 | inactive: 9.06%
NS(=O)(=O)c1ccc(NC(=O)c2cccc(Cl)c2)cc1 | inactive: -1.4%
Cc1cc(OCC(=O)OCC(=O)Nc2cc(S(=O)(=O)N3CCOCC3)ccc2Cl)ccc1Cl | inactive: -3.45%
Cc1cc(C)nc(-n2nc(C)cc2NC(=O)C(C)C)n1 | inactive: -1.22%
O=C(CSc1n[nH]c(=O)[nH]c1=O)N/N=C/c1ccccc1 | inactive: 10.7%
CCOc1cccc2cc(-c3nc4ccc(C(=O)O)cc4[nH]3)c(=O)oc12 | inactive: 14.9%
CC(C)CN(CC(C)C)C(=O)CN1C(=O)NC2(CCCc3ccccc32)C1=O (configuration not stated) | inactive: 6.19%
